Earlier results on one compound are cited in patent publication US20230312752A1 (Brown University, priority 2021, published 2023).

The conditions of the data set: intravenous or oral route; cited from earlier work.

Turning to `C[C@H]1O[C@H](O[C@H]2[C@H](O)[C@@H](O)[C@@H](O)[C@H](O)[C@@H]2O)[C@@H](N)C[C@@H]1NC(=N)C(=O)O` [Kasugamycin, 2-amino-2-[(2R,3S,5S,6R)-5-amino-2-methyl-6-[(2R,3S,5S,6S)-2,3,4,5,6-pentahydroxycyclohexyl]oxyoxan-3-yl]iminoacetic acid], the toxicity in man result is on record as “minimal toxicity”.
